Source: a compilation of properties of binary mixtures (doi:10.1021/je401124t)
The densities may have been worked out from excess volumes.

Assay: xn = mol fraction of the nth substance listed
Conditions: 101 kPa

COP(=O)([O-])OC.Cn1cc[n+](C)c1 + CC(C)O
mass density [kg/m3]
Conditions | x2 = 0 | x2 = 0.0999 | x2 = 0.2032 | x2 = 0.301 | x2 = 0.402 | x2 = 0.5002 | x2 = 0.6 | x2 = 0.7009 | x2 = 0.7997 | x2 = 0.9013
293.15 K | – | – | 1219.1 | 1192.6 | 1160.5 | 1124.7 | 1081.3 | 1028.9 | 966.9 | 888.4
298.15 K | 1261.3 | 1240.2 | – | 1189.1 | 1157 | – | 1077.8 | – | 963.2 | 884.5
303.15 K | 1257.8 | 1236.8 | 1212.3 | 1185.6 | 1153.5 | – | 1074.2 | 1021.7 | 959.4 | 880.6
308.15 K | 1254.4 | 1233.4 | 1208.8 | 1182.2 | 1150.1 | 1114 | 1070.6 | – | 955.6 | –
313.15 K | – | – | – | – | 1146.6 | 1110.5 | 1067 | 1014.4 | 951.9 | 872.7
318.15 K | 1247.6 | 1226.6 | – | 1175.2 | 1143 | – | 1063.4 | – | 948.1 | 868.6
323.15 K | 1244.2 | 1223.2 | 1198.6 | 1171.8 | 1139.6 | – | 1059.8 | 1006.9 | 944.3 | –

COP(=O)([O-])OC.Cn1cc[n+](C)c1 + CCCO
mass density [kg/m3]
Conditions | x2 = 0 | x2 = 0.098 | x2 = 0.1993 | x2 = 0.3018 | x2 = 0.4 | x2 = 0.5002 | x2 = 0.5996 | x2 = 0.6995 | x2 = 0.799 | x2 = 0.8998
293.15 K | 1264.9 | 1244.7 | 1222 | – | 1166.1 | 1131 | 1090.1 | 1040.5 | 980.4 | 904.2
298.15 K | – | 1241.2 | 1218.6 | 1192 | 1162.6 | 1127.4 | 1086.5 | 1036.8 | 976.7 | 900.4
303.15 K | 1257.8 | 1237.8 | – | 1188.5 | 1159.1 | – | – | 1033.1 | 973 | 896.6
308.15 K | 1254.4 | 1234.4 | – | 1185 | 1155.5 | 1120.3 | 1079.2 | 1029.5 | 969.2 | 892.7
313.15 K | 1251 | 1230.9 | 1208.2 | 1181.5 | 1152 | 1116.7 | – | 1025.8 | 965.5 | 888.9
318.15 K | 1247.6 | – | 1204.7 | 1178 | – | – | 1072 | 1022.1 | 961.7 | 885
323.15 K | 1244.2 | 1224 | 1201.2 | – | 1144.9 | 1109.6 | – | 1018.5 | – | 881.1

CO + COP(=O)([O-])OC.Cn1cc[n+](C)c1
x1 = 1
Conditions | mass density [kg/m3]
293.15 K | 792.1
298.15 K | 787.4
308.15 K | 777.9
313.15 K | 773.1
323.15 K | 763.5

CCO + COP(=O)([O-])OC.Cn1cc[n+](C)c1
x1 = 1
Conditions | mass density [kg/m3]
293.15 K | 789.9
298.15 K | 785.6
303.15 K | 782.2
308.15 K | 777.8
313.15 K | 773.4
318.15 K | 769
323.15 K | 764.5
